According to paper PMC9911399, “Two distinct binding modes provide the RNA-binding protein RbFox with extraordinary sequence specificity”:
Positions count from the first letter of the chain named. The list shows a part of the results.

T1: RBFOX1 RRM RbFoxmut (Fox-RRM*) (Homo sapiens, UniProt Q9NWB1 109-208, R118D;E147R;N151S;E152T)
T1 sequence: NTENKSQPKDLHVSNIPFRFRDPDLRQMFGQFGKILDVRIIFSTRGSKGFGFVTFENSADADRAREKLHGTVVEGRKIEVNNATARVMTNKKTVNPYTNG

B1: AGGUCGC (DNA:RNA)
RNA: GGGAGACCGGAAUUCAGAUUGUCCAGGUCGCUUAAAUCCCGUCGUAGCCACCA
DNA 1: CAATCTGAATTCCGGTCTCCC
DNA 2: TGGTGGCTACGACGGGATT
B2: AUAUUAG (DNA:RNA)
RNA: B1 RNA with G26U, G27A, C29U, G30A, C31G
DNA 1: CAATCTGAATTCCGGTCTCCC
DNA 2: TGGTGGCTACGACGGGATT
B3: CUCACGC (DNA:RNA)
RNA: B1 RNA with A25C, G26U, G27C, U28A
DNA 1: CAATCTGAATTCCGGTCTCCC
DNA 2: TGGTGGCTACGACGGGATT
B4: GUAGAUU (DNA:RNA)
RNA: GGGAGACCGGAAUUCAGAUUGUCCGUAGAUUUUAAAUCCCGUCGUAGCCACCA
DNA 1: CAATCTGAATTCCGGTCTCCC
DNA 2: TGGTGGCTACGACGGGATT
B5: AGAUACA (DNA:RNA)
RNA: B1 RNA with G27A, C29A, G30C, C31A
DNA 1: CAATCTGAATTCCGGTCTCCC
DNA 2: TGGTGGCTACGACGGGATT
B6: CAUUGAU (DNA:RNA)
RNA: B1 RNA with A25C, G26A, G27U, C29G, G30A, C31U
DNA 1: CAATCTGAATTCCGGTCTCCC
DNA 2: TGGTGGCTACGACGGGATT
B7: GCAACGC (DNA:RNA)
RNA: B1 RNA with A25G, G26C, G27A, U28A
DNA 1: CAATCTGAATTCCGGTCTCCC
DNA 2: TGGTGGCTACGACGGGATT
B8: CGGCUUU (DNA:RNA)
RNA: B1 RNA with A25C, U28C, C29U, G30U, C31U
DNA 1: CAATCTGAATTCCGGTCTCCC
DNA 2: TGGTGGCTACGACGGGATT
B9: GACAAAA (DNA:RNA)
RNA: B4 RNA with U26A, A27C, G28A, U30A, U31A
DNA 1: CAATCTGAATTCCGGTCTCCC
DNA 2: TGGTGGCTACGACGGGATT
B10: GAAGCUC (DNA:RNA)
RNA: B4 RNA with U26A, A29C, U31C
DNA 1: CAATCTGAATTCCGGTCTCCC
DNA 2: TGGTGGCTACGACGGGATT
B11: CAUAACU (DNA:RNA)
RNA: B4 RNA with G25C, U26A, A27U, G28A, U30C
DNA 1: CAATCTGAATTCCGGTCTCCC
DNA 2: TGGTGGCTACGACGGGATT
B12: GGAUAAC (DNA:RNA)
RNA: B1 RNA with A25G, G27A, C29A, G30A
DNA 1: CAATCTGAATTCCGGTCTCCC
DNA 2: TGGTGGCTACGACGGGATT
B13: AGUUACU (DNA:RNA)
RNA: B1 RNA with G27U, C29A, G30C, C31U
DNA 1: CAATCTGAATTCCGGTCTCCC
DNA 2: TGGTGGCTACGACGGGATT
B14: CCCGGGA (DNA:RNA)
RNA: B1 RNA with A25C, G26C, G27C, U28G, C29G, C31A
DNA 1: CAATCTGAATTCCGGTCTCCC
DNA 2: TGGTGGCTACGACGGGATT
B15: UACCUUA (DNA:RNA)
RNA: B4 RNA with G25U, U26A, A27C, G28C, A29U, U31A
DNA 1: CAATCTGAATTCCGGTCTCCC
DNA 2: TGGTGGCTACGACGGGATT
B16: CACGCCC (DNA:RNA)
RNA: B1 RNA with A25C, G26A, G27C, U28G, G30C
DNA 1: CAATCTGAATTCCGGTCTCCC
DNA 2: TGGTGGCTACGACGGGATT
B17: AGGCGAA (DNA:RNA)
RNA: B1 RNA with U28C, C29G, G30A, C31A
DNA 1: CAATCTGAATTCCGGTCTCCC
DNA 2: TGGTGGCTACGACGGGATT
B18: CCAAUGG (DNA:RNA)
RNA: B1 RNA with A25C, G26C, G27A, U28A, C29U, C31G
DNA 1: CAATCTGAATTCCGGTCTCCC
DNA 2: TGGTGGCTACGACGGGATT
B19: CGAACAC (DNA:RNA)
RNA: B1 RNA with A25C, G27A, U28A, G30A
DNA 1: CAATCTGAATTCCGGTCTCCC
DNA 2: TGGTGGCTACGACGGGATT
B20: UACCGCG (DNA:RNA)
RNA: GGGAGACCGGAAUUCAGAUUGUCCUACCGCGUUAAAUCCCGUCGUAGCCACCA
DNA 1: CAATCTGAATTCCGGTCTCCC
DNA 2: TGGTGGCTACGACGGGATT

Target: T1, RBFOX1 RRM RbFoxmut (Fox-RRM*)
Test: EMSA; HiTS-Eq, 1 nM pool, 10 min; buffer printed only for the single-RNA assays: 10 mM Tris pH 7.5, 150 mM NaCl, 3.4 mM EDTA, 0.001% NP-40, 30 C
Conditions: tags: His6 N-terminal (pET28a); label: 5' 32P
Outline: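 Purified wild-type or mutant RbFox RRM at increasing concentrations was equilibrated with 1 nM of 5′-radiolabelled RNA carrying 7 randomized nucleotides for 10 min in 50 µL. Unbound RNA was separated by 8% native PAGE and sequenced. Relative association constants came from read-count changes of each RNA species compared with the control reaction, normalised to the cognate motif.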

Binder | binding signal
B1 | 0.0824 KA relative to UGCAUGU
B2 | 0.127 KA relative to UGCAUGU
B3 | 0.0906 KA relative to UGCAUGU
B4 | 0.138 KA relative to UGCAUGU
B5 | 0.0889 KA relative to UGCAUGU
B6 | 0.126 KA relative to UGCAUGU
B7 | 0.0568 KA relative to UGCAUGU
B8 | 0.0746 KA relative to UGCAUGU
B9 | 0.057 KA relative to UGCAUGU
B10 | 0.0484 KA relative to UGCAUGU
B11 | 0.0993 KA relative to UGCAUGU
B12 | 0.0671 KA relative to UGCAUGU
B13 | 0.0898 KA relative to UGCAUGU
B14 | 0.0476 KA relative to UGCAUGU
B15 | 0.163 KA relative to UGCAUGU
B16 | 0.0943 KA relative to UGCAUGU
B17 | 0.0877 KA relative to UGCAUGU
B18 | 0.0834 KA relative to UGCAUGU
B19 | 0.075 KA relative to UGCAUGU
B20 | 0.083 KA relative to UGCAUGU
